Reference: PMC9161086, “Water-Soluble Trichogin GA IV-Derived Peptaibols Protect Tomato Plants From Botrytis cinerea Infection With Limited Impact on Plant Defenses” (Frontiers in Plant Science, 2022)

System: Botrytis cinerea strain B05.10
Experiment: Preventive efficacy against B. cinerea infection on detached tomato cv. Marmande leaves
Details: in vivo
Source text: Marmande leaves, according to the same procedure.

CCCCCCCC(=O)NC(C)(C)C(=O)NCC(=O)N[C@@H](CC(C)C)C(=O)NC(C)(C)C(=O)N[C@@H](CCCCN)C(=O)NC(C)(C)C(=O)N[C@@H](CC(C)C)C(=O)NC(C)(C)C(=O)NCC(=O)N[C@H](C(=O)N[C@@H](CC(C)C)C(N)=O)[C@@H](C)CC [Pep 6r]
Disease severity (necrotic lesion diameter), preventive treatment: did not show protection capacity
